Laboratory results taken from US20240408222A1, “COMPOUNDS, PHARMACEUTICAL COMPOSITIONS, AND METHODS FOR THE TREATMENT, PREVENTION, OR MANAGEMENT OF HYPERPRO[…]” (VINCERX PHARMA GMBH, priority 2021, published 2024).
At least one structure is not confirmed: it was looked up by name or label, or the drawing left a doubt.

What was measured:
[1] = tested on: SUM149; assay: Cytotoxicity assay (Version 2, automated, AC50) with/without neutrophil elastase; type: cell-based; settings: Version 2, activity concentration at −50%
Method: (§1) Cultivation of cells was performed according to standard procedures with the media recommended by the provider. The cells, in a total volume of 100 μL, were seeded in a 96-well plate with a white bottom (#3610). After a 24 h incubation period at 37° C. and […], the medium was exchanged by adding 90 μL fresh medium. The treatment started by adding the test compound in 10 μL of culture medium to the cells in triplicates. Concentrations ranging from 10^−5 M to 10^−13 M were chosen. Two identically treated sets of samples were prepared. One set was treated with the test compound alone, whereas to the second set the compound and 10 nM elastase was added followed by a 72 h incubation period at 37° C. and […]. The proliferation was detected using the MTT assay (ATCC). At the end of the incubation period the MTT reagent was added to all samples for 4 h. Lysis of the cells followed by addition of the detergent was done overnight. The formed dye was detected at 570 nm. The proliferation of untreated but otherwise identically handled cells was define as the 100% value.
(§2) The cytotoxicity assay (Version 2) was performed as described above. Some changes were applied as the assays were performed in an automated fashion and the IC50 values determination was changed. Here the change in metabolic activity of the cells, in percent, was calculated by normalization of the measured values to the absorbance values of medium containing wells without cells (═−100%) and the absorbance of the DMSO-treated cells (═0%). AC50 values (activity concentration at −50%) were determined by means of a 4 parameter Hill-fit using GeneData Screener software.

[2] = tested on: HT29; assay: as above; type: cell-based, human; settings: Version 2, activity concentration at −50%
Method: as §1, §2

[3] = tested on: NCI H292; assay: as above; type: cell-based, human; settings: Version 2, activity concentration at −50%
Method: as §1, §2

[4] = tested on: 786-O; assay: as above; type: cell-based, human; settings: Version 2, activity concentration at −50%
Method: as §1, §2

[5] = tested on: HT29; assay: Cytotoxicity in vitro (MTT) in presence/absence of elastase; type: cell-based, human; settings: 72 h
Method: as §1

[6] = tested on: NCI H292; assay: as above; type: cell-based, human; settings: 72 h
Method: as §1

[7] = tested on: SUM149; assay: as above; type: cell-based; settings: 72 h
Method: as §1

[8] = tested on: 786-O; assay: as above; type: cell-based, human; settings: 72 h
Method: as §1

[9] = SUM149, with (+) neutrophil elastase
[10] = SUM149, without (−) neutrophil elastase
[11] = HT29, with (+) neutrophil elastase
[12] = HT29, without (−) neutrophil elastase
[13] = NCI H292, with (+) neutrophil elastase
[14] = NCI H292, without (−) neutrophil elastase
[15] = without (−) neutrophil elastase
[16] = HT29, with (+) 10 nM neutrophil elastase
[17] = NCI H292, with (+) 10 nM neutrophil elastase
[18] = SUM149, with (+) 10 nM neutrophil elastase

Row | SMILES | AC50 [1, 9] [nM] | AC50 [1, 10] [nM] | AC50 [2, 11] [nM] | AC50 [2, 12] [nM] | AC50 [3, 13] [nM] | AC50 [3, 14] [nM] | AC50 ([4]; with (+) neutrophil elastase) [nM] | AC50 [4, 15] [nM] | IC50 [5, 16] [nM] | IC50 [5, 12] [nM] | IC50 [6, 17] [nM] | IC50 [6, 14] [nM] | IC50 [7, 18] [nM] | IC50 [7, 10] [nM] | IC50 ([8]; with (+) 10 nM neutrophil elastase) [nM] | IC50 [8, 15] [nM]
1 | CCCNC(=O)Nc1cccc(S(=O)(=O)Nc2cccc([C@H](CC(=O)O)NC(=O)Nc3ccc(NC(=O)NCCOCCOCCOCCC(=O)N[C@@H](CC(=O)O)C(=O)N4CCC[C@H]4C(=O)N[C@H](C(=O)N=S(C)(=O)Cc4cc5nc(c4)OCCCOc4cc(F)ccc4-c4cc(ncc4F)N5)C(C)C)cc3)c2)c1 (mixture of isomers) [Compound 38, N-{14-[4-({[(1S)-2-carboxy-1-{3-[({3-[(propylcarbamoyl)amino]phenyl}sulfonyl)amino]phenyl}ethyl]carbamoyl}amino)anilino]-14-oxo-4,7,10-trioxa-13-azatetradecan-1-oyl}-L-alpha-aspartyl-L-prolyl-N—[(RS)—{[15,19-difluoro-3,4-dihydro-2H,11H-10,6-(azeno)-12,16-(metheno)-1,5,11,13-benzodioxadiazacyclooctadecin-8-yl]methyl}(methyl)oxido-lambda^6-sulfanylidene]-L-valinamide] | ≤ 10 | 100 to 1000 | ≤ 10 | 100 to 1000 | ≤ 10 | 100 to 1000 | ≤ 10 | 100 to 1000 |  |  |  |  |  |  |  | 
2 | CCCNC(=O)Nc1cccc(S(=O)(=O)Nc2cccc([C@H](CC(=O)O)NC(=O)Nc3ccc(NC(=O)N(C)CCN(C)CCN(C)CC(=O)N[C@@H](CC(N)=O)C(=O)N4CCC[C@H]4C(=O)N[C@H](C(=O)N=S(C)(=O)Cc4cc5cc(c4)OC(C)CCOc4cc(F)ccc4-c4nc(ncc4F)N5)C(C)C)cc3)c2)c1 (relative stereo) [Compound 11] | 100 to 1000 | 100 to 1000 | 100 to 1000 | 100 to 1000 |  | 100 to 1000 | 100 to 1000 | 100 to 1000 | ≤ 1 | 11 to 100 | ≤ 1 | > 100 | ≤ 1 | 11 to 100 |  | 
3 | CCCNC(=O)Nc1cccc(S(=O)(=O)Nc2cccc([C@@H](CC(=O)O)NC(=O)Nc3ccc(NC(=O)NCCOCCOCCOCCC(=O)N[C@@H](CC(=O)O)C(=O)N4CCC[C@H]4C(=O)N[C@H](C(=O)N=S(C)(=O)Cc4cc5nc(c4)OCCCOc4cc(F)ccc4-c4cc(ncc4F)N5)C(C)C)cc3)c2)c1 (relative stereo) [Compound 41, disodium 1-{(2S)-2-(carboxylatomethyl)-17-[4-({[(1R)-2-carboxylato-1-{3-[({3-[(propylcarbamoyl)amino]phenyl}sulfonyl)amino]phenyl}ethyl]carbamoyl}amino)anilino]-4,17-dioxo-7,10,13-trioxa-3,16-diazaheptadecan-1-oyl}-L-prolyl-N—[(R*)—{[15,19-difluoro-3,4-dihydro-2H,11H-10,6-(azeno)-12,16-(metheno)-1,5,11,13-benzodioxadiazacyclooctadecin-8-yl]methyl}(methyl)oxido-lambda^6-sulfanylidene]-L-valinamide] | ≤ 10 | 100 to 1000 | ≤ 10 | 100 to 1000 | ≤ 10 | 100 to 1000 | ≤ 10 | 100 to 1000 |  |  |  |  |  |  |  | 
4 | CCCNC(=O)Nc1cccc(S(=O)(=O)Nc2cccc([C@@H](CC(=O)O)NC(=O)Nc3ccc(NC(=O)NCCOCCOCCOCCC(=O)N[C@@H](CC(=O)O)C(=O)N4CCC[C@H]4C(=O)N[C@H](C(=O)N=S(C)(=O)Cc4cc5nc(c4)OCCCCCCOc4cc(F)ccc4-c4cc(ncc4F)N5)C(C)C)cc3)c2)c1 (relative stereo) [Compound 43] | 11 to 100 | > 1000 | 11 to 100 | > 1000 | 11 to 100 | > 1000 | 11 to 100 | > 1000 |  |  |  |  |  |  |  | 
5 | CCCNC(=O)Nc1cccc(S(=O)(=O)Nc2cccc([C@@H](CC(=O)O)NC(=O)Nc3ccc(NC(=O)NCCOCCOCCOCCC(=O)N[C@@H](CC(=O)O)C(=O)N4CCC[C@H]4C(=O)N[C@H](C(=O)N=[S@](C)(=O)Cc4cc5cc(c4)O[C@H](C)CCOc4cc(F)ccc4-c4nc(ncc4F)N5)C(C)C)cc3)c2)c1 (relative stereo) [Compound 45] | 11 to 100 | > 1000 | 100 to 1000 | > 1000 | 100 to 1000 | > 1000 | 100 to 1000 | > 1000 |  |  |  |  |  |  |  | 
6 | CCCNC(=O)Nc1cccc(S(=O)(=O)Nc2cccc([C@@H](CC(=O)O)NC(=O)Nc3ccc(NC(=O)NCCOCCOCCOCCC(=O)N[C@@H](CC(=O)O)C(=O)N4CCC[C@H]4C(=O)N[C@H](C(=O)N=[S@](C)(=O)Cc4cc5cc(c4)O[C@H](C)CCOc4cc(F)ccc4-c4nc(ncc4F)N5)C(C)C)cc3)c2)c1 (relative stereo) [Compound 46] | 100 to 1000 | > 1000 | > 1000 | > 1000 | > 1000 | > 1000 | > 1000 | > 1000 |  |  |  |  |  |  |  | 
7 | CCCNC(=O)Nc1cccc(S(=O)(=O)Nc2cccc([C@@H](CC(=O)O)NC(=O)Nc3ccc(NC(=O)NCCOCCOCCOCCC(=O)N[C@@H](CC(=O)O)C(=O)N4CCC[C@H]4C(=O)N[C@H](C(=O)N=[S@](C)(=O)Cc4cc5cc(c4)O[C@H](C)CCOc4cc(F)ccc4-c4nc(ncc4F)N5)C(C)C)cc3)c2)c1 (relative stereo) [Compound 48] | ≤ 10 | 100 to 1000 | ≤ 10 | 100 to 1000 | ≤ 10 | 100 to 1000 | ≤ 10 | > 1000 |  |  |  |  |  |  |  | 
8 | CCCNC(=O)Nc1cccc(S(=O)(=O)Nc2cccc([C@@H](CC(=O)O)NC(=O)Nc3ccc(NC(=O)NCCOCCOCCOCCC(=O)N[C@@H](CC(=O)O)C(=O)N4CCC[C@H]4C(=O)N[C@H](C(=O)N=[S@](C)(=O)Cc4cc5cc(c4)O[C@H](C)CCOc4cc(F)ccc4-c4nc(ncc4F)N5)C(C)C)cc3)c2)c1 (relative stereo) [Compound 49] | ≤ 10 | 100 to 1000 | ≤ 10 | > 1000 | ≤ 10 | 100 to 1000 | ≤ 10 | > 1000 |  |  |  |  |  |  |  | 
9 | CCCNC(=O)Nc1cccc(S(=O)(=O)Nc2cccc([C@@H](CC(=O)O)NC(=O)Nc3ccc(NC(=O)NCCOCCOCCOCCC(=O)N[C@@H](CC(=O)O)C(=O)N4CCC[C@H]4C(=O)N[C@H](C(=O)N=S(C)(=O)Cc4cc5cc(c4)OCCCCNc4cc(ccc4F)-c4nc(ncc4F)N5)C(C)C)cc3)c2)c1 (relative stereo) [Compound 50] | ≤ 10 | 100 to 1000 | ≤ 10 | > 1000 | ≤ 10 | 100 to 1000 | ≤ 10 | > 1000 |  |  |  |  |  |  |  | 
10 | CCCNC(=O)Nc1cccc(S(=O)(=O)Nc2cccc([C@H](CC(=O)O)NC(=O)Nc3ccc(NC(=O)N(C)CCN(C)CCN(C)CC(=O)N[C@@H](CC(N)=O)C(=O)N4CCC[C@H]4C(=O)N[C@H](C(=O)N=[S@@](C)(=O)Cc4ccnc(Nc5cc(-c6ccc(F)cc6OC)c(F)cn5)c4)C(C)C)cc3)c2)c1 [Compound 9, N-{2-[{2-[({4-[({(1S)-2-Carboxy-1-[3-({3-[(propylcarbamoyl)amino]benzene-1-sulfonyl}amino)phenyl]ethyl}carbamoyl)amino]phenyl}carbamoyl)(methyl)amino]ethyl}(methyl)amino]ethyl}-N-methylglycyl-L-asparaginyl-L-prolyl-N—[(S)-[(2-{[5-fluoro-4-(4-fluoro-2-methoxyphenyl)pyridine-2-yl]amino}pyridin-4-yl)methyl](methyl)oxo-lambda^6-sulfanylidene]-L-valinamide] | 11 to 100 | > 1000 | 11 to 100 | > 1000 | 11 to 100 | > 1000 | 11 to 100 | > 1000 | 11 to 100 | > 100 | 11 to 100 | > 100 | 11 to 100 | > 100 | 1.1 to 10 | > 100
